{
  "source": "paper PMC12136788",
  "binders": {"B1": {"name": "chr13:21172813:21172814:+_ENSG00000032742_ENST00000351808|hu_mus|FALSE|FALSE (ssRNA)", "RNA": "GGGAGUUCUACAGUCCGACGAUCAAUAUUUCCCAUAUUCACUUUCAGUCUUCCUGCAUUGCUAAACAUCUUGUUUUUCACUAUAACUUGGUAUGUGUUCAGUGCUUCUGCAUACAUUUCAUUAGCAGAAUACUGACUGGCCAACAACAGAGGAUUGAGCAUCA"}, "B2": {"name": "chr22:19452774:19452775:-_ENSG00000070010_ENST00000399523|hu_hu|hu_hu_hu_mus_False|98_108 (ssRNA)", "RNA": "GGGAGUUCUACAGUCCGACGAUCCUUUUCAUUAUAGUUGAUGGCAAUCACAUCUCCAGUCGUCAGACAGGCGAAGUUUCUCAAUGCAUUUUCUAAUACCGCUUUAGGGUUGGUAAUAUCCAGGAAGUCUGGGCUCUGAGGCUGCAACAGAGGAUUGAGCAUCA"}, "B3": {"name": "chr10:17279241:17279242:+_ENSG00000026025_ENST00000224237|hu_hu|motif|central (ssRNA)", "RNA": "GGGAGUUCUACAGUCCGACGAUCUUUUUAUUCAAGGUCAUCGUGAUGCUGAGAAGUUUCGUUGAUAACCUGUCCAUCUCGGGUUUCAACCGUCUUAAUCAGAAGUGUCCUUUUUGAGUGGGUAUCAACCAGAGGGAGUGAAUCCAACAGAGGAUUGAGCAUCA"}, "B4": {"name": "chr12:39763582:39763583:-_ENSG00000139116_ENST00000544797|hu_mus|hu_hu_hu_mus_False|1_58 (ssRNA)", "RNA": "GGGAGUUCUACAGUCCGACGAUCCUCUAGGAACUGGGCAUUCACUUUGAAUUCAGGAGGGGGCAGCCCGUUUUUAAUUGCUAUGUGCUUUUUCUCAUCAAUACUCUUGAACAGGUGUCUAACAGCACGAGAGAUGAUACCCAGCAACAGAGGAUUGAGCAUCA"}, "B5": {"name": "chr2:47387770:47387771:-_ENSG00000143933_ENST00000272298|hu_mus|hu_hu_hu_mus_True|1_18 (ssRNA)", "RNA": "GGGAGUUCUACAGUCCGACGAUCAAGGUUUAAGGACAAUGACAGUAAGAUAAGGGAAGAAAACAUGGAGGAAUGAAGUCCUAAUUACUAUACAUGCAUAUUUUUUGACAGUAGGGGAGAAACCUUUUUUACAGAUAUUACAAACAACAGAGGAUUGAGCAUCA"}, "B6": {"name": "145533498_145537040_1022_CDS_ENSG00000133706_ENST00000545646|human|control|control (ssRNA)", "RNA": "GGGAGUUCUACAGUCCGACGAUCCUUGUAUGAUGUUAAAGGUGCAGAAAGUGAUGCACCAAGAAUUUCCUCCCCCAUUAAUUCCUUAACAACAGGCACCACGCCAUUGUCUUUGGUAAAGCCCUGGUAUGACAUAUUCCUGGCCAACAGAGGAUUGAGCAUCA"}, "B7": {"name": "54676041_54676254_540_CDS_ENSG00000135486_ENST00000330752|human|control|control (ssRNA)", "RNA": "GGGAGUUCUACAGUCCGACGAUCAGCACUAGCCAUCUCUUGCUUUGACAGGGCUUUUCUAACUUCACAGUUGUGGCCAUUCACAGUAUGGUAUUUCUGAAUGACAAUCUUAUCCACGGAGUCAUGGUCGUCAAAGGUUACAAACAACAGAGGAUUGAGCAUCA"}, "B8": {"name": "chr2:202488911:202488912:-_ENSG00000155755_ENST00000286196|hu_mus|hu_hu_hu_mus_False|8_108 (ssRNA)", "RNA": "GGGAGUUCUACAGUCCGACGAUCAUUUAACAUUUUUUCAUAAUCUCCAGUAGCAUUUCAGCAUUAUGUAACAAAAGCUCAAUUGUAAAUACAUGUAUCUUAUAAAAAUACACUUAAAAACACGAGUAAAAAUGGGAGGCGCCACAACAGAGGAUUGAGCAUCA"}, "B9": {"name": "chr14:89338683:89338684:+_ENSG00000165533_ENST00000346301|hu_hu|motif|central (ssRNA)", "RNA": "GGGAGUUCUACAGUCCGACGAUCGUUGUUGUUGUUGACCAGAGCCAGCCUGAAGCACUGAUGGGCCAAAUUUGUAUCUCCGGUUCCCACAGCUACAUGUCCCAAGUUGUACCAGACAUCAGCUGCCUCUUCUUCAUUUUCAGCCAACAGAGGAUUGAGCAUCA"}, "B10": {"name": "chr7:36506639:36506640:-_ENSMUSG00000043671_ENSMUST00000051377|mus_hu|motif|central (ssRNA)", "RNA": "GGGAGUUCUACAGUCCGACGAUCGAACAGCACUAAUGCUUGCAUCAGCAUCAUAAAUUGAUUAAAUUGCCAUGUCAGACGGAAGAGAAAAGUUGAUAUGAAAAUGGCAAGAAGUGUCAGCCUUUCAGAAAGAGGCUGUAAGUUCAACAGAGGAUUGAGCAUCA"}, "B11": {"name": "chr4:107939044:107939045:-_ENSMUSG00000034636_ENSMUST00000043616|mus_hu|motif|central (ssRNA)", "RNA": "GGGAGUUCUACAGUCCGACGAUCACUGAUAAUGUCUGUAAUCGUGAUAUCAGCAUUCACACCUGUGGCAUCAAGUUCCACGGACUUGUGGUGGCAGAAAGCUUUCCGGAAAGCAACAGCAGAGAUCUUUGCUUUGCGAAUGCACAACAGAGGAUUGAGCAUCA"}, "B12": {"name": "90179122_90179242_1308_CDS_ENSG00000171488_ENST00000370454|human|control|control (ssRNA)", "RNA": "GGGAGUUCUACAGUCCGACGAUCAGCAAAGUCAUUUUUCACAUCUGGAAUAUCAUCAAUUCCAGUCUCCUGACGGACAUACUCAAAGGAAUAUUCCCGUAGAGAACGGUAGAACAGCCAGUAUAAGGUAUAAAGGCACGUCAACAACAGAGGAUUGAGCAUCA"}, "B13": {"name": "38556220_38556481_3198_CDS_ENSG00000131747_ENST00000423485|human|control|control (ssRNA)", "RNA": "GGGAGUUCUACAGUCCGACGAUCUCUUAAUCCAUAAUAUUUAAGUCUGAGUUCAAAAAAGUCUCUUAGAAUAUCCAACACCGUGUCAUAUUUCUUUAAACAGCCUACGUGGUCAAAAAGCACCAUAGAGUUGCAUGUGAGACUCAACAGAGGAUUGAGCAUCA"}, "B14": {"name": "chr11:95532463:95532464:+_ENSG00000166037_ENST00000540830|hu_hu|motif|central (ssRNA)", "RNA": "GGGAGUUCUACAGUCCGACGAUCCUUACUUGGGGAGCGUCGUAGAUCACUAUUAAGGAAAGGCUUAUCCGAAGGAUAUACGGCAUAUGGAGAUGAAGAAUGCCGAACCAUGCUUCCAUUAGACCUUGAUGGCUCAGCAAAGCUCAACAGAGGAUUGAGCAUCA"}, "B15": {"name": "158550971_158552674_281_CDS_ENSMUSG00000026596_ENSMUST00000166172|mouse|control|control (ssRNA)", "RNA": "GGGAGUUCUACAGUCCGACGAUCGAUCGCUUCAUUCAGUGCCUGAGAUUCAGCAUCACAGCCAAACGGGCGGUGCAAAACUUCUGGACUACUGCCUCCAGUCUUGUCUCCCUCAAAUCCAUCCUCCACACAGCUGGCAAAGUGCAACAGAGGAUUGAGCAUCA"}, "B16": {"name": "chr4:122741918:122741919:-_ENSG00000145386_ENST00000274026|hu_hu|FALSE|FALSE (ssRNA)", "RNA": "GGGAGUUCUACAGUCCGACGAUCGUCUGGCUGUUUCUUCAUGUAACCCACUUUAGGUUUACAUUUAACCUCCAUUUCCCUAAGGUAUGUGUGAAUAUCCUCAUGGUAGUCUGGUACUUCAUUAACACUCACUGGCUUUUCAUCCAACAGAGGAUUGAGCAUCA"}, "B17": {"name": "chr15:25584193:25584194:-_ENSG00000114062_ENST00000438097|hu_mus|FALSE|FALSE (ssRNA)", "RNA": "GGGAGUUCUACAGUCCGACGAUCAUGACUACUGUGGUUCACUAUCUUACAGCCUUUUUGUACUGGGAUACUAUUACCAUCAAAUUAUCCCUCUUAUAUUUAUUUUUUAACUUUUUCUUUUUCUUUUUCUUUUUCUUUUUGUUUCAACAGAGGAUUGAGCAUCA"}, "B18": {"name": "chr7:140404665:140404666:+_ENSG00000090266_ENST00000247866|hu_hu|hu_hu_hu_mus_False|8_8 (ssRNA)", "RNA": "GGGAGUUCUACAGUCCGACGAUCUGCUCCUACUCGUCCAGAGAGUUUACAGUGUCAGUCCUCGUCAUCAGGAGGGAUUCCCAGUUCUUCAUCUGUCCACUGUGAAGGAUCUGGAUAUGAAAAGUGACCCAGCACCUCAUCCGACAACAGAGGAUUGAGCAUCA"}, "B19": {"name": "chr4:149991449:149991450:+_ENSMUSG00000039852_ENSMUST00000105680|mus_mus|FALSE|FALSE (ssRNA)", "RNA": "GGGAGUUCUACAGUCCGACGAUCGCGCUCGGCUGCCAGUCUGUCUGGGUAACUCAUCUCAGGCCGCAGCUGAGGACCUGCUAGUGCCAGUCUCUCCCGCUCCAAAGGGUUGAGGCCCGGGUGGAAAGAGGCAAAGGGGUGGGGCAACAGAGGAUUGAGCAUCA"}, "B20": {"name": "chr12:89993059:89993060:-_ENSG00000070961_ENST00000261173|hu_hu|motif|central (ssRNA)", "RNA": "GGGAGUUCUACAGUCCGACGAUCAGGUAUUUCUUCCUUUUGUGUUCCAUGACCAGCUUCUUUGAGGAAUUUUAAACGGCGGGUUGGAAUUGUUGAAAUAAGCUGGCCCCAGAGUAAUGUUCCCAUUCCUAGGAAUAUUGACCACAACAGAGGAUUGAGCAUCA"}, "B21": {"name": "chr7:99056824:99056825:-_ENSG00000241468_ENST00000394186|hu_hu|motif|central (ssRNA)", "RNA": "GGGAGUUCUACAGUCCGACGAUCUCAGUGGUAUUUGCGGAGCCGCUCGUGCUUGAGAUGCUUGUAGGAAAAGGAGUAGCGGAAGAGCACGUAGCAUGCCAGCACCAUGGUAAUCCCCGAGAUGCUCCCCUUCUUCACAUUGAUCAACAGAGGAUUGAGCAUCA"}, "B22": {"name": "chr15:102110757:102110758:+_ENSMUSG00000045665_ENSMUST00000051341|mus_hu|FALSE|FALSE (ssRNA)", "RNA": "GGGAGUUCUACAGUCCGACGAUCGUAGGGGGCCUGAAGCCAAUCAGCUGCCAGGGCCAGGAAGUAGACCUGAUAGAAGUCCAGUUGAAACCGAAGGAAGGAGGGAUUGCUGCAGGCCCUUCCAGGGGGUUUAGCCCGGCAUCUCAACAGAGGAUUGAGCAUCA"}},
  "note": "Some of the results follow.",
  "data": [
    {"target": "T1, UNK ZnF1-3 (human, UniProt Q9C0B0 31-174)", "T1 sequence": "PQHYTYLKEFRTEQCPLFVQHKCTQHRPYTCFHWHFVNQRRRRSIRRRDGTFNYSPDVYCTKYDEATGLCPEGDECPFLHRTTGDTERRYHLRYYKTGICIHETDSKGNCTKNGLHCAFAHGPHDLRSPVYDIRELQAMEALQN", "test": "nsRBNS (natural sequence RNA bind-n-seq); RBNS binding buffer (assumed for nsRBNS): 25 mM Tris pH 7.5, 150 mM KCl, 3 mM MgCl2, 0.01% Triton X-100, 500 ug/ml BSA, 20 U/ml SUPERase-In, 4 C; UNK is unkempt and MSI1 is Musashi-1; names of the RNAs are library labels; protein concentration not given here; high values mean tight binding", "units": {"binding signal": "enrichment R"}, "values": [
      {"binder": "B1", "binding signal": 0.489},
      {"binder": "B2", "binding signal": 0.873},
      {"binder": "B3", "binding signal": 0.789},
      {"binder": "B4", "binding signal": 1.58},
      {"binder": "B5", "binding signal": 2.22},
      {"binder": "B6", "binding signal": 1.47},
      {"binder": "B7", "binding signal": 1.07},
      {"binder": "B8", "binding signal": 0.824},
      {"binder": "B9", "binding signal": 0.686},
      {"binder": "B10", "binding signal": 2.81},
      {"binder": "B11", "binding signal": 1.24},
      {"binder": "B12", "binding signal": 1.2},
      {"binder": "B13", "binding signal": 1.12},
      {"binder": "B14", "binding signal": 0.879},
      {"binder": "B15", "binding signal": 1.24},
      {"binder": "B16", "binding signal": 0.371},
      {"binder": "B17", "binding signal": 0.608},
      {"binder": "B18", "binding signal": 1.3},
      {"binder": "B19", "binding signal": 0.994},
      {"binder": "B20", "binding signal": 0.64},
      {"binder": "B21", "binding signal": 1.16},
      {"binder": "B22", "binding signal": 0.951}
    ]}
  ]
}
